According to US20150246024A1 (priority 2012, published 2015):

System: S. aureus Newman
Settings: 32 mg/kg intraperitoneal in 12-hour intervals, from 24 hours prior to 72 hours post infection; 1×10^8 CFU
Method: Inhibitor solution was prepared freshly prior to every injection. Briefly, a frozen stock of compound 1771 (1) was pre-warmed at 37° C. for 5 minutes and suspended into Compound buffer (20 mM HEPES-KOH, pH 7.5, 100 mM NaCl). The clinical isolate Newman was used for infection since it has been extensively characterized in our laboratory to study the therapeutic effects of small molecule inhibitors (McAdow 2011). […] An overnight culture of strain Newman was diluted 1:100 into fresh TSB and grown until an OD600 of 0.4. Bacteria were centrifuged at 7,000×g, washed, and suspended in one-tenth volume of PBS. Six week-old female BALB/c mice (n=15) (Charles River) were injected retro-orbitally with 1×10^8 colony forming unit (CFU) suspension in 100 μl of PBS. Mice were monitored for survival over 10 days. […]
The therapeutic impact of compound 1771 during infection was examined. First, we evaluated the half-life of compound 1771 in vivo. […]
Animal experiments were performed in accordance with the institutional guidelines following experimental protocol review and approval by the Institutional Biosafety Committee (IBC) and the Institutional Animal Care and Use Committee (IACUC) at the University of Chicago. S. aureus Newman (1×10^8 CFU suspended in 100 μl PBS) was injected into the periorbital venous plexus of BALB/c mice (n=15) and animals were monitored for survival over 10 days. […]

O=C(COC(=O)Cc1coc2ccc3ccccc3c12)Nc1nnc(-c2ccccc2)o1 [Compound 1771, 2-oxo-2-[(5-phenyl-1,3,4-oxadiazol-2-yl)amino]ethylnaphtho[2,1-b]furan-1-ylacetate]
survival of treated animals after challenge: up to 132 hours
